Laboratory results as given in paper PMC4336329 (PLoS ONE, 2015).
Hit rate of the full screen: of about 310,000 compounds, about 14,000 (4.5%) showed an effect of 50% or more. The effect is printed as a negative number. This is one part of the list.

Each molecule was assayed against human ether-à-go-go-related gene (hERG) potassium channel (human, UniProt Q12809) (assay: primary screen, population patch clamp on CHO cells stably expressing hERG).
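Note: peak tail current of the secondary pulse compared with the same well before compound.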

Sequence of human ether-à-go-go-related gene (hERG) potassium channel (Q12809 whole entry, looked up): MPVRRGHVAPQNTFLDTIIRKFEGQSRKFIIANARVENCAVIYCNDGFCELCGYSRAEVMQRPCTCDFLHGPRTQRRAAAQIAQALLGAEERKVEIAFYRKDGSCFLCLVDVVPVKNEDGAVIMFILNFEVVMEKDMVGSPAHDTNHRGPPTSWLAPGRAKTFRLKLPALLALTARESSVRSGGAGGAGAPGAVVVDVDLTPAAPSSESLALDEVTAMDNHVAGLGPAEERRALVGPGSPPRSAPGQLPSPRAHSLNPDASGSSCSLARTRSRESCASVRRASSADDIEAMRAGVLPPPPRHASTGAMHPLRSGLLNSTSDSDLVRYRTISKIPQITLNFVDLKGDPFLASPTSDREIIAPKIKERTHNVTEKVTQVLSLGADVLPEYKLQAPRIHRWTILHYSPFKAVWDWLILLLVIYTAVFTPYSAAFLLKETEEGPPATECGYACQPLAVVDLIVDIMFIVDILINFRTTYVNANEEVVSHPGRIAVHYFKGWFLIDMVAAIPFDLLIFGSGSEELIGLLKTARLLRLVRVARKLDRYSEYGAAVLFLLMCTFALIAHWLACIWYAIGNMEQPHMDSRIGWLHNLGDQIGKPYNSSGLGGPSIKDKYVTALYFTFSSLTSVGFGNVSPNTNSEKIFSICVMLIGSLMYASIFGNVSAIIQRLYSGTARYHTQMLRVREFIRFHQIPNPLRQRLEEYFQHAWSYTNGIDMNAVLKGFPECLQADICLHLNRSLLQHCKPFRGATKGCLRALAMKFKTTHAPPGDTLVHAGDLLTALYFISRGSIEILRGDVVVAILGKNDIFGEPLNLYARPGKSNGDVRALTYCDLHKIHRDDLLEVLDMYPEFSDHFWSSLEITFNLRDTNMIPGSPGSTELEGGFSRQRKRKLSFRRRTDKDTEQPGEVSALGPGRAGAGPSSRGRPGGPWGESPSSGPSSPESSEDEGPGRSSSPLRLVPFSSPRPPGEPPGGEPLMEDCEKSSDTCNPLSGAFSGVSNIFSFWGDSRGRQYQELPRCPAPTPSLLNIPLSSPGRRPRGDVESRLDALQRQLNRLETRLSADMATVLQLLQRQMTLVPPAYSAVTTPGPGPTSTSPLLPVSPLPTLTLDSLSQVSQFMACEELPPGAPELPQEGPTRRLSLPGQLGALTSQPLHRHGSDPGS

SMILES	hERG current change (%, negative = inhibition) at 10uM
CCOC(=O)c1sc2ncnc(NCC(c3cccs3)N(C)C)c2c1C (stereo not drawn)	5.57%
O=C(c1c[nH]c2ccccc12)C(F)(F)F	-5.59%
CCSc1nnc2c(n1)OC=Nc1ccc(Br)cc1-2	-6.1%
CC1CC2c3cccc(C(=O)O)c3C(=O)N2c2ccc(Cl)cc21 (stereo not drawn)	5.97%
COC(=O)Cc1nc(Nc2ccccc2)sc1C	12.8%
Cc1cccc(CNc2ncc(-c3cccc([N+](=O)[O-])c3)n2C)c1.O=C(O)C(=O)O	-71.1%
Cn1[nH]c(CSc2ccc(Cl)cc2)cc1=O	12.7%
COc1cccc(N(CC(=O)NCC2CCCO2)C(=O)CCC(=O)Nc2nccs2)c1 (stereo not drawn)	16.3%
C=CCn1c(-c2ccc(Cl)cc2)c[nH]c1=S	19.4%
O=C(C1=C[C@@H](C2CC2)C[C@@H](OCc2ccc(CO)cc2)O1)N1CCN(Cc2ccccc2)CC1	-58.7%
CC(=O)c1ccc(N2CCN(C(=O)c3ccc4nc[nH]c4c3)CC2)cc1	3.37%
CCOC(=O)C1(CCOc2ccccc2)CCN(Cc2ccc(C)o2)CC1	-75%
CCn1c(=O)cc(N2CCN(Cc3ccccc3)CC2)[nH]c1=O	6.79%
COc1ccc(-c2cc(C(=O)Nc3ccccc3F)on2)cc1	23.3%
Cc1ccc(C(C)NC(=O)c2ccc3c(c2)OCO3)cc1C (stereo not drawn)	-47.7%
COc1cccc(NC(=O)CN(C)S(=O)(=O)/C=C/c2ccccc2)c1	-20.7%
Cc1cccc(N/C=C(\[N+](=O)[O-])S(=O)(=O)c2ccccc2)c1	24.2%
Cc1ccc(NC(=O)CCS(=O)(=O)c2cccc3nonc23)c(Br)c1	6.97%
O=C1CCc2ccc(NC(=O)C3CC3)cc2N1	0.309%

SMILES	hERG current change (%, negative = inhibition) at 10uM
O=C(c1ccccn1)N(Cc1cccs1)C1(C(=O)NC2CCCCC2)CCCCC1	17.1%
CCN(CC)CCN1C(=O)c2oc3ccc(F)cc3c(=O)c2C1c1ccncc1 (stereo not drawn)	-7.67%
COc1cc(OC)cc(N(C(=O)CNC(=O)c2cccs2)C(C(=O)NCC2CCCO2)c2ccccc2)c1 (stereo not drawn)	9.26%
Br.C=CCn1c(=N)n(CC(=O)c2ccc(Br)s2)c2ccccc21	-58.6%
Cn1c(-c2ccc(F)cc2)cnc1NCc1ccc(F)cc1	-40.7%
O=C(CCN1CCN(CC(=O)Nc2ccccc2Cl)CC1)Nc1ccccc1F	-69.1%
O=C(Nc1cccnc1)c1cnn2c(C(F)F)cc(C3CC3)nc12	-57.6%
CN(C)CCSc1nc(-c2ccccc2)nc2c1COC(C)(C)C2	-69.1%
O=C(O)CCCNS(=O)(=O)c1cccc2nsnc12	26.7%
Cc1ccc(S(=O)(=O)NC(=O)Nc2cc(C)ccc2F)cc1	-5.64%
C[C@@H](NC(=O)c1[nH]cnc1C(=O)Nc1nccs1)c1ccccc1	-3.32%
Nc1scc2c(C(=O)O)nn(-c3ccccc3)c(=O)c12	-4.16%
O=C(COc1ccc2ccccc2c1)Nc1ccc2c3c(cccc13)CC2	3.91%
O=C(NCc1ccccc1)C1CCC(=O)N(CC2CCCCC2)C1 (stereo not drawn)	9.03%
O=C(O)CSc1nnc(CSc2nc3ccccc3s2)n1-c1ccccc1	17%
CC(C)NC(=O)CSc1nc2sccc2c(=O)n1-c1ccccc1	10.8%
CC(C)C(=O)NC(C)C(c1cccs1)N1CCOCC1 (stereo not drawn)	5.94%
NC(=O)COc1ccc(/C=N/NC(=O)C2CCCN2S(=O)(=O)c2ccc(Cl)cc2)cc1 (stereo not drawn)	17.1%
O=C(Nc1ccccc1)c1cn2ccccc2n1	-2.28%

SMILES	hERG current change (%, negative = inhibition) at 10uM
COCCn1c(SCc2cccnc2)nnc1-c1ccco1	3.7%
O=C(Nc1nc(-c2ccc(F)cc2)cs1)c1cccc(N2C(=O)CCC2=O)c1	9.67%
CSc1nc(N2CCOCC2)c2sccc2n1	-2.64%
CC(C)[C@H](Nc1ccc(S(=O)(=O)N2CCOCC2)cc1[N+](=O)[O-])C(=O)OCC(=O)N(C(C)C)C(C)C	-22.5%
CC1CCCN(c2ccc(C(=O)N3CCC4(CC3)OCCO4)cc2[N+](=O)[O-])C1 (stereo not drawn)	-0.496%
CCCCOc1ccc(Cc2c(O)nc(SC)[nH]c2=O)cc1	18.9%
Cc1ccc(-c2csc(NC(=O)c3ccc([N+](=O)[O-])o3)n2)cc1	6.85%
COC(=O)c1ccccc1NC(=O)Nc1cc(C(C)(C)C)on1	13.5%
O=[N+]([O-])c1ccc(-c2cnc(SC(c3ccccc3)c3ccccc3)[nH]2)cc1	11.1%
CC(C)(CN1CCN(c2ccccc2)CC1)NS(=O)(=O)c1ccccc1	-14.2%
COc1ccc(/C=C/C(=O)NC(=S)NNC(=O)c2cccs2)cc1	24.9%
O=C(CNC(=O)C1CCCCC1)Nc1ccc(Cl)cc1	13.9%
CCOc1ccc(CN(C)C(=O)c2ccc(S(=O)(=O)N(C)c3ccccc3OC)cc2)cc1	-7.85%
Cc1c(C(=O)NC2CCS(=O)(=O)C2)oc2ccccc12 (stereo not drawn)	17.5%
Cc1cc(C)n(-c2ccc(Cl)c(C(=O)O)c2)n1	27.6%
CCCNS(=O)(=O)c1ccc(OCC(=O)N2CCN(Cc3ccc4c(c3)OCO4)CC2)c(C)c1	-61.6%
CC(C)CC(NC(=O)C1CCC(C)CC1)C(=O)N1CCN(c2ccccn2)CC1 (stereo not drawn)	-47.7%
CC1(C)CNC(=O)c2sc(N3CCOCC3)nc2C1	2.81%
COc1ccc(C(=O)Nc2ccnn2C2CCN(C(C)CSC)CC2)cc1 (stereo not drawn)	1.28%
